Results are given in words; binding and its absence hold for the method and conditions named. In cells and extracts the contact can be indirect. Some binding calls cover weakened binding; strength is not graded here. For some assays here: Tags and fused reporters may be left off the sequences shown. Blank lines part the entries; values can stand above or below the substance they belong to.
Legend:
[1] = biological target: T1, FAM134C (endogenous, C2C12 cells) (mouse (endogenous in C2C12)) (UniProt Q9CQV4); test: co-IP; endogenous FAM134C immunoprecipitated by FAM134C antibody in HEK293T, C2C12, A549, U2OS (FAM134C knockout U2OS as control), BMPR1A detected by Western blotting; also U2OS with stable knock-down of ATG5 or BECN1
T1 sequence: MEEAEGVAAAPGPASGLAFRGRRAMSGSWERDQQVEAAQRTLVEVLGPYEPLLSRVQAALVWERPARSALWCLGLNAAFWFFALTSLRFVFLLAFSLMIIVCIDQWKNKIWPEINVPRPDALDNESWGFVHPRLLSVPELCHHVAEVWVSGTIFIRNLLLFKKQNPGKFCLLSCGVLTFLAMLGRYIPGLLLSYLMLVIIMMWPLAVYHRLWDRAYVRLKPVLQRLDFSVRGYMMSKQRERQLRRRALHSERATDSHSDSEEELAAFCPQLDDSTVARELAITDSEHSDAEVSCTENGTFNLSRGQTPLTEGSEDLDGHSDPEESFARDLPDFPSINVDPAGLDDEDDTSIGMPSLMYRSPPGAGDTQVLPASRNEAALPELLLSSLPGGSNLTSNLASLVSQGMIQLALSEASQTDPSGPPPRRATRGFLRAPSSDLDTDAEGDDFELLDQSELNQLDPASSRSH

By UniProt entry, the sequences of proteins in these tests, tags left out. Where a name states a change or a piece, a line headed by the entry shows the natural chain unless it says otherwise. Residues count along the entry.
UniProt Q86VR2: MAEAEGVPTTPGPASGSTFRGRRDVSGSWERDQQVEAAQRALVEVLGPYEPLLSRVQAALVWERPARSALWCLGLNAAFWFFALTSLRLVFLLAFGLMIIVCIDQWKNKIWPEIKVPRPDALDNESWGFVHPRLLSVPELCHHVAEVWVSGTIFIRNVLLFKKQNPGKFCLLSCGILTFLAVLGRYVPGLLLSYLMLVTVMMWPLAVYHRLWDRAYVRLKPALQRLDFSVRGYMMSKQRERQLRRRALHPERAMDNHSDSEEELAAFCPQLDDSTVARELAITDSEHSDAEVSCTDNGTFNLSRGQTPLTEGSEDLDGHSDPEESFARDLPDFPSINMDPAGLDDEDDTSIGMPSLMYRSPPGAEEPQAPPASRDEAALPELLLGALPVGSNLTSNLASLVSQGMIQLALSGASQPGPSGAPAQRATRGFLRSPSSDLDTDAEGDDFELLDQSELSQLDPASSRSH
UniProt Q9H6L5: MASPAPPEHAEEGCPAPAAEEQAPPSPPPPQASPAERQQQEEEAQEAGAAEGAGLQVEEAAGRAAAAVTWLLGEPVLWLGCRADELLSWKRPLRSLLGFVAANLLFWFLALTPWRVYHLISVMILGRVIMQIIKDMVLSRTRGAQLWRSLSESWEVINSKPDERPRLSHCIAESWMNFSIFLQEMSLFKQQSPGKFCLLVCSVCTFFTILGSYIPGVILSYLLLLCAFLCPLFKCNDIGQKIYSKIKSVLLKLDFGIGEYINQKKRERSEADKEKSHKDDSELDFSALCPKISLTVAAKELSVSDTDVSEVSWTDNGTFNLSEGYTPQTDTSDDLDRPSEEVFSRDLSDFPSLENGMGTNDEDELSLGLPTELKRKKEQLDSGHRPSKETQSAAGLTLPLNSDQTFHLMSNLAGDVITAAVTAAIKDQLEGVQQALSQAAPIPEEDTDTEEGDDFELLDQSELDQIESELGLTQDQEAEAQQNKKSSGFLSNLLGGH
UniProt Q99717: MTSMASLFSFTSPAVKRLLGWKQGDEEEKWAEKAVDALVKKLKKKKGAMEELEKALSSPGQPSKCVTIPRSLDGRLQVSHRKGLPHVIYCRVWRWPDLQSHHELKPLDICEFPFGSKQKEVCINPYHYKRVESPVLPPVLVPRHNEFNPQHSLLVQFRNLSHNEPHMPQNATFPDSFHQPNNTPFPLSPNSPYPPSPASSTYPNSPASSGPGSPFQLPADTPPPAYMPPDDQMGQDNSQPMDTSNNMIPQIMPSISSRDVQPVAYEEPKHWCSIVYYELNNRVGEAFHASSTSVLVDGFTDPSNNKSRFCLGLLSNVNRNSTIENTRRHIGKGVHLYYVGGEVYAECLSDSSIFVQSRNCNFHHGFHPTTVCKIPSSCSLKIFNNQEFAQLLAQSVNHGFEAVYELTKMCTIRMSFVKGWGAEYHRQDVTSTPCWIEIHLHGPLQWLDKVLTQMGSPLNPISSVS
UniProt P36894: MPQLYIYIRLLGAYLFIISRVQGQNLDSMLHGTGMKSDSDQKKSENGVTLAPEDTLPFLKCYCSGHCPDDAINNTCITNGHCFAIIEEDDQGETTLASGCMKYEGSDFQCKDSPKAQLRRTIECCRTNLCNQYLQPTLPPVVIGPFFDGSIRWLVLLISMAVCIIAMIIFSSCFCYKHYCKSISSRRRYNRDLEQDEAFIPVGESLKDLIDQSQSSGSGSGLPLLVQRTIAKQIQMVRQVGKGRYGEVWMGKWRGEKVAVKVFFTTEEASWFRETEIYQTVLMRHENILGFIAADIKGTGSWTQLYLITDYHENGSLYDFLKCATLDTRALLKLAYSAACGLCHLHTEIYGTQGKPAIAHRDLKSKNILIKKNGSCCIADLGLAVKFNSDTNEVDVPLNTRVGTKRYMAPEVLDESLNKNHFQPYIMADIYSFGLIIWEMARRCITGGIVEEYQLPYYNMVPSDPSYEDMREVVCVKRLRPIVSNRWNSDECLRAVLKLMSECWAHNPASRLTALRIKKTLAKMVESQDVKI
UniProt Q13873, residues 27-1038: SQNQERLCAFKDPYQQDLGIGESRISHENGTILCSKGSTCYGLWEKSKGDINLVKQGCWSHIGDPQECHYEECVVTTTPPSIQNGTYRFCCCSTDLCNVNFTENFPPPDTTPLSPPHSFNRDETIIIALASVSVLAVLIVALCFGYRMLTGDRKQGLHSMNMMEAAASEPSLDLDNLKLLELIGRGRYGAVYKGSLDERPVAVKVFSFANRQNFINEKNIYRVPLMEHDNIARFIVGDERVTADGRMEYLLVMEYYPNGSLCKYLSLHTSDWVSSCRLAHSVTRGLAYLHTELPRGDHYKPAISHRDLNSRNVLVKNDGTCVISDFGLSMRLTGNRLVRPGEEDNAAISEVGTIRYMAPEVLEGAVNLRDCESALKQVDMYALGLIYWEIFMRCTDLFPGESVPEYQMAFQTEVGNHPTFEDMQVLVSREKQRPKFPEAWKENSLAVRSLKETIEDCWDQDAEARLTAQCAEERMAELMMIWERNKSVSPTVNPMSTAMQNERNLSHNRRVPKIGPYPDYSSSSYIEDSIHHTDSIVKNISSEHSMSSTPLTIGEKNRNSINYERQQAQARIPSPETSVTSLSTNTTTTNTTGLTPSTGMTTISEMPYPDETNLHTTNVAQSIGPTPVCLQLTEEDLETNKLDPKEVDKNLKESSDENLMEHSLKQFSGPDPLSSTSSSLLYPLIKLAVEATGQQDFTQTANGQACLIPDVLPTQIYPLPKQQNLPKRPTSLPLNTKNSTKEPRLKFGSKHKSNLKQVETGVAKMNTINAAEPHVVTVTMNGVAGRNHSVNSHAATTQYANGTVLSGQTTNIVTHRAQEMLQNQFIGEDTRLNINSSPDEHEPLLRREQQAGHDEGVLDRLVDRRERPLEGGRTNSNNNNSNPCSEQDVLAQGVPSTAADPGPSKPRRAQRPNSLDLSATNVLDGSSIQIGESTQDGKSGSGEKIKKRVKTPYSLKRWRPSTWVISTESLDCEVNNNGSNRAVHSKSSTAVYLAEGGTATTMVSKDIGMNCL
UniProt P36895, residues 24-532: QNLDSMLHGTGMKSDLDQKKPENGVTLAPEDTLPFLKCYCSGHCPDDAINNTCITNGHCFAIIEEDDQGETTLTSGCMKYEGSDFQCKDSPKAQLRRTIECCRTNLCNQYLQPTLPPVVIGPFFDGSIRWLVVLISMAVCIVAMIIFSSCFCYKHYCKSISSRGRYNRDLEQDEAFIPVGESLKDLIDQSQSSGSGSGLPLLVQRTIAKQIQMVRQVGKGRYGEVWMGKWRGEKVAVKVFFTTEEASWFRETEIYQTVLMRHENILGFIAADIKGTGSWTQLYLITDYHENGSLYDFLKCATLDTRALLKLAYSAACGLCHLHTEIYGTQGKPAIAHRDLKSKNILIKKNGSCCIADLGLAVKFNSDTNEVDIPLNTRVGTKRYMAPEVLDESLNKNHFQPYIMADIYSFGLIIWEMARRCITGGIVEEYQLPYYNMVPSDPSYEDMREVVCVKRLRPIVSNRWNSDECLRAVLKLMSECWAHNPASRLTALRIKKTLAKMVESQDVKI

[2] = biological target: FAM134C (endogenous, human cell lines) (human (endogenous in HEK293T, A549, U2OS)) (UniProt Q86VR2); test: as above
FAM134C-FLAG = FAM134C-FLAG (UniProt Q86VR2); test: co-IP; HEK293T co-transfected, harvested 24 h after transfection; FLAG-tagged FAM134 protein immunoprecipitated with anti-FLAG antibody and protein A Sepharose; HA-tagged partner or endogenous LC3 detected by Western blotting
FAM134B-FLAG = FAM134B-FLAG (UniProt Q9H6L5); test: as above
FAM134A-FLAG = biological target: T2, FAM134A-FLAG (UniProt Q8NC44); test: as above
T2 sequence: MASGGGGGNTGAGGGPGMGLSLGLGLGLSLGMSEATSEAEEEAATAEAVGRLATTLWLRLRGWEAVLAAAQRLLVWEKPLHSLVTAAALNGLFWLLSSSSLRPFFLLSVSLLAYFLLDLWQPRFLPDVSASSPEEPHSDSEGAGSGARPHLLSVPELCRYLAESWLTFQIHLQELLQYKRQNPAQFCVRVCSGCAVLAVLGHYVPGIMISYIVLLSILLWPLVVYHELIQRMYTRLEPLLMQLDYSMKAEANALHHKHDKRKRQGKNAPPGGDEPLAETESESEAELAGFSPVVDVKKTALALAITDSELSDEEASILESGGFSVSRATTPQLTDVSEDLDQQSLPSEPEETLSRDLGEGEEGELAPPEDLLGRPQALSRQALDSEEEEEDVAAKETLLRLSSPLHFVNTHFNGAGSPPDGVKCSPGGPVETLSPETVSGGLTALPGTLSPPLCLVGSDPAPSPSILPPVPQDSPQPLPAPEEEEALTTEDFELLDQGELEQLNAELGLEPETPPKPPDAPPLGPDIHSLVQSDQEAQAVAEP

[3] = biological target: Smad5-HA (in vitro translated) (UniProt Q99717); test: co-IP; in vitro translated (TNT system) Smad5-HA or BMPR1A-HA incubated with MYC-FAM134C, immunoprecipitation with anti-HA antibodies, Western blotting
[4] = biological target: BMPR1A-HA (in vitro translated) (UniProt P36894); test: as above
YC-FAM134C = YC-FAM134C (UniProt Q86VR2); test: split reporter; BiFC: YN and YC fragments of YFP/Venus fused to the partners in pcDNA3, co-transfected in U2OS or A549 cells, confocal microscopy

Substance: BMPR1A(ECD)-HA (from UniProt P36894 24-152) (domain or fragment)
binding (FAM134C-FLAG): no binding

Substance: BMPR2-HA (from UniProt Q13873 27-1038) (receptor)
binding (FAM134C-FLAG): no binding

Substance: MYC-FAM134C (from UniProt Q86VR2 1-466)
binding [3]: no binding
binding [4]: binds

Substance: YN-BMPR1A (from UniProt P36894 24-532) (receptor)
binding (YC-FAM134C): binds

Next, values leading:

binding [1]: binds
Substance: BMPR1A (endogenous, C2C12 cells) (from UniProt P36895 24-532) (receptor)

binding [2]: binds
Substance: BMPR1A (endogenous, human cell lines) (from UniProt P36894 24-532) (receptor)

binding (FAM134B-FLAG): binds weakly
binding (FAM134A-FLAG): no binding
binding (FAM134C-FLAG): binds
Substance: BMPR1A-HA (from UniProt P36894 24-532) (receptor)

binding (FAM134C-FLAG): no binding
Substance: Smad5-HA (from UniProt Q99717 1-465)

Reference: paper PMC12669696
